# In publication PMC4336329 (PLoS ONE, 2015):
# In all, about 310,000 compounds went through this assay and about 2,200 (0.71%) showed an effect of 50% or more. Effects have a minus sign here. Some of the results follow.
# Molecular target: human ether-à-go-go-related gene (hERG) potassium channel (human, UniProt Q12809)
# Assay: primary screen, population patch clamp on CHO cells stably expressing hERG
# Sequence of human ether-à-go-go-related gene (hERG) potassium channel (Q12809 whole entry, looked up): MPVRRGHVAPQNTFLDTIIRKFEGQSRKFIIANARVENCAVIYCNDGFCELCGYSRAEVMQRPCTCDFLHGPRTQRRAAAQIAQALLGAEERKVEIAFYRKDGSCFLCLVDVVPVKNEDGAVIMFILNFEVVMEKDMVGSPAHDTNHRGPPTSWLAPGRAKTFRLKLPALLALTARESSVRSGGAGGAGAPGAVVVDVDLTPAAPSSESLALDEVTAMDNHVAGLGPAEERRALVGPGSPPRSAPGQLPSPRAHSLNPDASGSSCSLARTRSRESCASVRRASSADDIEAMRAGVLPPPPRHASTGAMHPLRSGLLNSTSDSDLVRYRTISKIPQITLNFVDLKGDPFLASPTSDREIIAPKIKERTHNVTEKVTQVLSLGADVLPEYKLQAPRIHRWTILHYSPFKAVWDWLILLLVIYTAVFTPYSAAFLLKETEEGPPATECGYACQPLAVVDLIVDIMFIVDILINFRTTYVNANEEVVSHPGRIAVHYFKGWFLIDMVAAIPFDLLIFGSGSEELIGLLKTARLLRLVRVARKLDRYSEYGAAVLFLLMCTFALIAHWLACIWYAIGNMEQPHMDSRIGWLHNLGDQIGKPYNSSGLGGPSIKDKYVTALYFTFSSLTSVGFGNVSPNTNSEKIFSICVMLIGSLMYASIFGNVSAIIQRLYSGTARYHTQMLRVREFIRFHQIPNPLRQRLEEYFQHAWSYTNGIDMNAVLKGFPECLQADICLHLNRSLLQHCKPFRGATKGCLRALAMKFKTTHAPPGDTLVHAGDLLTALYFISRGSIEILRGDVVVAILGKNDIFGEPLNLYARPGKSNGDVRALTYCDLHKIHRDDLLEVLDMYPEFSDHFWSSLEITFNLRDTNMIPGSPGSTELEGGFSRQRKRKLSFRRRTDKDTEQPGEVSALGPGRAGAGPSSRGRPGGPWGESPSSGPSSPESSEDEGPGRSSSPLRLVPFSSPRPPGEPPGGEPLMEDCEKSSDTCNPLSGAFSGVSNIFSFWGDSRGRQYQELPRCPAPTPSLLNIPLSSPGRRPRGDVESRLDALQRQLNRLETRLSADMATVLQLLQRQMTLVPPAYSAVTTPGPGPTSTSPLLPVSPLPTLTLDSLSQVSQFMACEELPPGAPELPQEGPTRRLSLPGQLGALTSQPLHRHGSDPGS
row,SMILES,"hERG current change (%, negative = inhibition) at 1uM"
1,C(#Cc1ccccc1)C[N+]1(CC#Cc2ccccc2)CCCCC1.[Br-],-15.7%
2,N#Cc1c(NCCO)ccc([N+](=O)[O-])c1NCCO,7.61%
3,CC(C)[C@H](NC(=O)OCc1ccccc1)C(=O)OCc1cc(=O)oc2cc(O)ccc12,0.75%
4,Cc1ccc(NC(=O)C2CCN(S(=O)(=O)c3c(C)noc3/C=C/c3ccco3)CC2)nc1,4.88%
5,COc1ccc(Cn2c(-c3ccc(OC)c(O)c3)nc3ccccc32)cc1O,6.77%
6,CNc1oc(Cc2ccccc2)nc1S(=O)(=O)c1ccccc1,5.78%
7,COc1cc(/C=N/NC(=O)c2ccc3ccccc3c2)ccc1Oc1ccc([N+](=O)[O-])cn1,-0.87%
8,Cc1cccc(C(P(=O)(c2ccccc2)c2ccccc2)P(=O)(c2ccccc2)c2ccccc2)n1,8.36%
9,Nc1c(Cl)c(Cl)nc(C(=O)OCC(=O)NC2CCCCC2)c1Cl,-17.1%
10,C[N+]1(CCOc2ccc([N+](=O)[O-])cc2)CCOCC1.[I-],2.61%
11,Brc1ccccc1OCCCN1CCCC1.O=C(O)C(=O)O,8.64%
12,O=C(Nc1ccc2ccccc2n1)Nc1cccs1,10.6%
13,Cc1ccnc(NC(=O)CCCOc2ccccc2)c1,13.4%
14,CCOc1ccc(C2C(C(=O)c3ccco3)=C(O)C(=O)N2CCN2CCOCC2)cc1 (stereo not drawn),13.2%
15,COc1ccc(/C=C/C(=O)NCc2cn(C)nc2C)cc1COc1ccc(Br)cc1,13%
16,COc1ccc(C/C(O)=C(\C#N)c2nc3ccccc3s2)cc1,17.2%
17,CSCC[C@H](NC(=O)OC(C)(C)C)C(=O)NCC1CCC(C(=O)N[C@@H](Cc2ccccc2)C(=O)O)CC1 (stereo partly drawn),7.43%
18,C[C@@H]1CCC(=O)N(CC[C@H](Sc2ccccc2)c2ccccc2)CC1,16.3%
19,O=C(NCc1ccccn1)C1CCN(Cc2cnn(-c3ccccc3)c2-n2cccc2)CC1,-3.33%
20,CCOc1ccc(Br)cc1C1C(C(=O)OC)=C(N)Oc2cc(N(C)C)ccc21 (stereo not drawn),16.6%
21,CCCn1nc2cc(C(=O)NCCc3cccs3)ccc2c1OCC,7.59%

row,SMILES,"hERG current change (%, negative = inhibition) at 1uM"
1,O=C(NC1CCCCC1)C(c1ccc(Cl)cc1)N(C(=O)c1cnccn1)c1ccc2c(c1)OCO2 (stereo not drawn),4.36%
2,CCCCNC(=O)c1ccc(CS(=O)(=O)c2ccc(C)cc2)o1,16.9%
3,Cc1ccc(C(=O)N2c3ccccc3CC2C)o1 (stereo not drawn),25.4%
4,COc1ccc(Cl)cc1C(=O)NC(=S)Nc1ccccc1N1CCOCC1,9.75%
5,CN(Cc1ccccc1)C(=O)Nc1ccccc1,8.6%
6,O=C(Nc1cccc([N+](=O)[O-])c1)c1cc(S(=O)(=O)N2CCOCC2)cs1,17.2%
7,COc1ccc(-c2noc(=O)[nH]2)cc1,5.43%
8,COc1cc(OC)cc(C(=O)NCc2ccc3c(c2)OCO3)c1,10.2%
9,CCCCn1c(=NC(C)=O)c(C#N)cc2c(=O)n3cccc(C)c3nc21,-14%
10,CCOc1ccc(Nc2nc3cc(S(=O)(=O)N(CC)CC)ccc3o2)cc1,3.11%
11,C=C(C)[C@@H]1CC=C(CN2CCC(N3CCC(C(=O)N4CCCC4)CC3)CC2)CC1,-24.6%
12,COc1cc([C@@H]2c3cc4c(cc3[C@@H](O)[C@H]3COC(=O)[C@H]23)OCO4)cc(OC)c1O[Si](C)(C)C(C)(C)C,13.7%
13,Cc1cc2sc3ccccc3c(=O)c2c(C)c1O,11.7%
14,O=C(CSCc1cc(=O)n2nc(C3CC3)sc2n1)Nc1ccc(F)cc1,16%
15,CCc1ccc(/C=N/n2c(C3CCCCC3)n[nH]c2=S)cc1,16.2%
16,O=C1CN(/N=C/c2ccc([N+](=O)[O-])o2)C(=O)N1,15.3%
17,COc1ccc([C@@H](C)NC(=O)CCc2nnc(-c3cc(C)on3)o2)cc1,3%
18,Cc1cccc(N(C)C(=O)CN(C)S(=O)(=O)c2ccc3c(c2)c(=O)n(C)c(=O)n3C)c1,8.94%
19,CCC(C)Sc1nnc(CSc2nc3nc(C)cc(C)n3n2)o1 (stereo not drawn),10.4%
20,O=C(Nc1ccccc1)c1nn(-c2ccccc2)c(=O)cc1C(F)(F)F,15.1%
21,Cc1sc(NC(=O)C2C3CCC(C3)C2C(=O)O)c(C(N)=O)c1-c1ccc(C(C)(C)C)cc1 (stereo not drawn),4.31%
